Reference: paper PMC12820563
Some of the results follow. The list includes weakly bound sequences.

target: T1, MBP-FoxP3dN (UniProt Q99JB6); test: PD-seq (MBP pull-down with sequencing); settings: 20 mM Tris-HCl pH 7.5, 100 mM NaCl, 1.5 mM MgCl2, 0.4 uM protein, 0.1 uM dsDNA library, 30 min, room temperature, amylose pull-down; high values mean tight binding; double strand, one strand shown
T1 sequence: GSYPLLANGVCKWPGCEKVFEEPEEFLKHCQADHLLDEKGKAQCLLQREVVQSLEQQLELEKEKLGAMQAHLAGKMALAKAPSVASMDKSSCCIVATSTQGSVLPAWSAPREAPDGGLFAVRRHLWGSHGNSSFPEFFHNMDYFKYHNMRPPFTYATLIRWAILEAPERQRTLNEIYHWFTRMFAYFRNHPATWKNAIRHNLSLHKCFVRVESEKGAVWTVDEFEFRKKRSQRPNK

| Sequence | binding signal (RPM ratio (pull-down/input)) |
| --- | --- |
| GATGATTGTTCTCCCAGCTGATGAATTTTATTTCTCGAGTAAACAAATTTTCCTAATCTTTCTGTTCAAGCGCCATCTAC | 1.53 |
| GATGATTGTTCTCCCAGCTGATGAATTTAAGCCGTCGAGTAAACAAATTTTCCTAATCTTTCTGTTCAAGCGCCATCTAC | 0.4 |
| GATGATTGTTCTCCCAGCTGATGAATTTGCGTAATCGAGTAAACAAATTTTCCTAATCTTTCTGTTCAAGCGCCATCTAC | 1.8 |
| GATGATTGTTCTCCCAGCTGATGAATTAGCACGATCGAGTAAACAAATTTTCCTAATCTTTCTGTTCAAGCGCCATCTAC | 0.311 |
| GATGATTGTTCTCCCAGCTGATGAATTGCAGTTTTCGAGTAAACAAATTTTCCTAATCTTTCTGTTCAAGCGCCATCTAC | 1.18 |
| GATGATTGTTCTCCCAGCTGATGAATTATACGTCTCGAGTAAACAAATTTTCCTAATCTTTCTGTTCAAGCGCCATCTAC | 0.608 |
| GATGATTGTTCTCCCAGCTGATGAATTTCTTAATTCGAGTAAACAAATTTTCCTAATCTTTCTGTTCAAGCGCCATCTAC | 0.276 |
| GATGATTGTTCTCCCAGCTGATGAATTGGATAACTCGAGTAAACAAATTTTCCTAATCTTTCTGTTCAAGCGCCATCTAC | 0.323 |
| GATGATTGTTCTCCCAGCTGATGAATTTGGGCTATCGAGTAAACAAATTTTCCTAATCTTTCTGTTCAAGCGCCATCTAC | 0.725 |
| GATGATTGTTCTCCCAGCTGATGAATTACTTCTTTCGAGTAAACAAATTTTCCTAATCTTTCTGTTCAAGCGCCATCTAC | 0.268 |
| GATGATTGTTCTCCCAGCTGATGAATTTGACTGTTCGAGTAAACAAATTTTCCTAATCTTTCTGTTCAAGCGCCATCTAC | 0.85 |
| GATGATTGTTCTCCCAGCTGATGAATTCTCCATGTCGAGTAAACAAATTTTCCTAATCTTTCTGTTCAAGCGCCATCTAC | 0.249 |
| GATGATTGTTCTCCCAGCTGATGAATTGACTTCATCGAGTAAACAAATTTTCCTAATCTTTCTGTTCAAGCGCCATCTAC | 0.378 |
| GATGATTGTTCTCCCAGCTGATGAATTCCTTAGTTCGAGTAAACAAATTTTCCTAATCTTTCTGTTCAAGCGCCATCTAC | 0.275 |
| GATGATTGTTCTCCCAGCTGATGAATTCCCGATGTCGAGTAAACAAATTTTCCTAATCTTTCTGTTCAAGCGCCATCTAC | 0.297 |
| GATGATTGTTCTCCCAGCTGATGAATTTACGGGGTCGAGTAAACAAATTTTCCTAATCTTTCTGTTCAAGCGCCATCTAC | 0.323 |
| GATGATTGTTCTCCCAGCTGATGAATTCCTAATATCGAGTAAACAAATTTTCCTAATCTTTCTGTTCAAGCGCCATCTAC | 0.374 |
| GATGATTGTTCTCCCAGCTGATGAATTCTCCCCTTCGAGTAAACAAATTTTCCTAATCTTTCTGTTCAAGCGCCATCTAC | 0.205 |
| GATGATTGTTCTCCCAGCTGATGAATTTTGGCCATCGAGTAAACAAATTTTCCTAATCTTTCTGTTCAAGCGCCATCTAC | 1.6 |
| GATGATTGTTCTCCCAGCTGATGAATTGTACAATTCGAGTAAACAAATTTTCCTAATCTTTCTGTTCAAGCGCCATCTAC | 0.443 |

| Sequence | binding signal (RPM ratio (pull-down/input)) |
| --- | --- |
| GATGATTGTTCTCCCAGCTGATGAATTCTACAGCTCGAGTAAACAAATTTTCCTAATCTTTCTGTTCAAGCGCCATCTAC | 0.263 |
| GATGATTGTTCTCCCAGCTGATGAATTAGCTTAGTCGAGTAAACAAATTTTCCTAATCTTTCTGTTCAAGCGCCATCTAC | 1.23 |
| GATGATTGTTCTCCCAGCTGATGAATTGATCACCTCGAGTAAACAAATTTTCCTAATCTTTCTGTTCAAGCGCCATCTAC | 0.663 |
| GATGATTGTTCTCCCAGCTGATGAATTCATTTCTTCGAGTAAACAAATTTTCCTAATCTTTCTGTTCAAGCGCCATCTAC | 0.743 |
| GATGATTGTTCTCCCAGCTGATGAATTCTTGGGATCGAGTAAACAAATTTTCCTAATCTTTCTGTTCAAGCGCCATCTAC | 0.227 |
| GATGATTGTTCTCCCAGCTGATGAATTTTGGCCGTCGAGTAAACAAATTTTCCTAATCTTTCTGTTCAAGCGCCATCTAC | 0.44 |
| GATGATTGTTCTCCCAGCTGATGAATTACTCCATTCGAGTAAACAAATTTTCCTAATCTTTCTGTTCAAGCGCCATCTAC | 0.327 |
| GATGATTGTTCTCCCAGCTGATGAATTGTTATCCTCGAGTAAACAAATTTTCCTAATCTTTCTGTTCAAGCGCCATCTAC | 2.64 |
| GATGATTGTTCTCCCAGCTGATGAATTTGATGCGTCGAGTAAACAAATTTTCCTAATCTTTCTGTTCAAGCGCCATCTAC | 3.1 |
| GATGATTGTTCTCCCAGCTGATGAATTTCTTCTGTCGAGTAAACAAATTTTCCTAATCTTTCTGTTCAAGCGCCATCTAC | 0.203 |
| GATGATTGTTCTCCCAGCTGATGAATTCATACTATCGAGTAAACAAATTTTCCTAATCTTTCTGTTCAAGCGCCATCTAC | 0.534 |
| GATGATTGTTCTCCCAGCTGATGAATTTGCTAGATCGAGTAAACAAATTTTCCTAATCTTTCTGTTCAAGCGCCATCTAC | 0.528 |
| GATGATTGTTCTCCCAGCTGATGAATTGTAGATCTCGAGTAAACAAATTTTCCTAATCTTTCTGTTCAAGCGCCATCTAC | 0.487 |
| GATGATTGTTCTCCCAGCTGATGAATTAACGCAATCGAGTAAACAAATTTTCCTAATCTTTCTGTTCAAGCGCCATCTAC | 2.75 |
| GATGATTGTTCTCCCAGCTGATGAATTCACCTAGTCGAGTAAACAAATTTTCCTAATCTTTCTGTTCAAGCGCCATCTAC | 0.241 |
| GATGATTGTTCTCCCAGCTGATGAATTGAGGTAATCGAGTAAACAAATTTTCCTAATCTTTCTGTTCAAGCGCCATCTAC | 0.557 |
| GATGATTGTTCTCCCAGCTGATGAATTGGGATATTCGAGTAAACAAATTTTCCTAATCTTTCTGTTCAAGCGCCATCTAC | 0.812 |
| GATGATTGTTCTCCCAGCTGATGAATTGTAGCATTCGAGTAAACAAATTTTCCTAATCTTTCTGTTCAAGCGCCATCTAC | 5.76 |
| GATGATTGTTCTCCCAGCTGATGAATTTGCCTCCTCGAGTAAACAAATTTTCCTAATCTTTCTGTTCAAGCGCCATCTAC | 2.37 |
| GATGATTGTTCTCCCAGCTGATGAATTATTCACCTCGAGTAAACAAATTTTCCTAATCTTTCTGTTCAAGCGCCATCTAC | 0.347 |
